The whole screen tested about 420,000 compounds, of which about 64,000 (15%) were called active. Inconclusive means that the source gave no clear call. Such entries were picked first, then a sample of the others. The call rests on the fitted dose curve; in most records, active means well fitted inhibition curve with a large enough effect; inconclusive means small, poorly fitted or top-dose-only effect; inactive means flat fitted curve, though single readings scatter. Potencies of inconclusive entries are left out as doubtful fits.
experiment: qHTS for Inhibitors of human tyrosyl-DNA phosphodiesterase 1 (TDP1): qHTS in cells in absence of CPT; conditions: DT40 Tdp1-/- hTDP1 cells, no CPT, ATP luminescence, 48 h; activity change, negative = growth inhibition: at 46.2 µM (top of the series) unless noted; further: nearly all actives have a fitted effect of over 55% in size
How it was run: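 Cells were dispensed at 400 per well, compounds added by pin tool, plates incubated ≥48 hr at 37 °C, then CellTiter-Glo added for 30 min at room temperature before luminescence reading. Line: DT40 Tdp1-/- complemented with hTDP1; camptothecin omitted.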
On the % scale 0 is the no-effect control and ±100 the full control effect; potency means the concentration at half of the fitted maximal effect; tags describe the fitted curve by direction and shape.

For `CN(C(=O)c1cccc(NC(=O)Cc2ccc(NC(=O)C3CCCN(C(=O)C4CCCC4)C3)cc2)c1)C1CC1` (stereo not given), which Potency is on record?
The Potency was inconclusive [inhibitor, single point].

For `Cc1cc(Oc2nc3ccccn3c(=O)c2/C=C(\C#N)C(=O)NC2CCS(=O)(=O)C2)ccc1Cl` (stereo not given), which Potency is on record?
Its Potency is active: 16.4 µM.

Which Potency does the source give for `COc1cc(CNc2ccc3[nH]c(=O)[nH]c3c2)cc(Br)c1OCC(=O)NC(C)(C)C` here?
Its Potency is inconclusive [inhibitor, single point].

For `COc1ccccc1CNC(=O)COC(=O)Cc1cccs1`, which “activity change, negative = growth inhibition” value is on record?
The value was inactive: 18.4%.

For `COc1ccc(CNC(=O)COC(=O)CN2C(=O)C(C)Oc3ccc(C)cc32)cc1` (stereo not given), which “activity change, negative = growth inhibition” value is on record?
The value was inactive: -15.5%.

For `CCOC(=O)/C=C/C(=O)Nc1ccc(S(=O)(=O)N(C)c2ccccc2)cc1`, which Potency is on record?
Its Potency is inconclusive [inhibitor, single point].

Which “activity change, negative = growth inhibition” value does the source give for `CCOC(=O)c1c(C=O)c2sc(C)cc2n1C` here?
Its value is inactive: -12.8%.

For `O=C(NC(c1ccc(-c2ccccc2)cc1)c1cnccn1)C1CCN(Cc2cccs2)CC1` (stereo not given), which Potency is on record?
Its Potency is inconclusive [inhibitor, single point].

For `Cc1ccc(-c2nnc(SCC(=O)N/N=C/c3ccccc3C(=O)O)n2-c2ccc(C)cc2)cc1`, which “activity change, negative = growth inhibition” value is on record?
The value was inactive: 5.48%.

Which Potency does the source give for `CCC(C)(C)NC(=O)C(c1ccc(C)cc1)N(Cc1cccs1)C(=O)c1ccc2c(c1)OCCO2` (stereo not given) here?
Its Potency is inconclusive [inhibitor, single point].

For `O=C(NCc1nnc(SC/C=C/c2ccccc2)o1)c1ccco1`, which Potency is on record?
The Potency was inconclusive [inhibitor, single point].

With `CCOc1ccc(NC(=O)NC(C)c2c(-n3cccc3)sc(C)c2C)cc1` (stereo not given) as the molecule, how does the Potency read?
Its Potency is inconclusive [inhibitor, single point].

Which Potency does the source give for `Cc1ccc(Nc2nnc(SC(C)C(=O)NC3CC3)s2)cc1` (stereo not given) here?
Its Potency is inconclusive [inhibitor, single point].

Which Potency does the source give for `CC(NC(=O)NC1CCCCC1)C(c1cccs1)N1CCN(c2ccccc2)CC1` (stereo not given) here?
The Potency was active: 20.6 µM.

With `CC(=O)c1ccc(N2CCN(S(=O)(=O)c3ccc4c(c3)CC(=O)N4C)CC2)cc1` as the molecule, how does the Potency read?
The Potency was inconclusive [inhibitor, single point].

Which Potency does the source give for `Cc1cccc(N(CC(=O)NCCC2=CCCCC2)S(C)(=O)=O)c1C` here?
The Potency was inconclusive [inhibitor, single point].

With `O=C(Nc1cccnc1)c1ccc(COc2ccccc2Br)cc1` as the molecule, how does the Potency read?
The Potency was inconclusive [inhibitor, single point].

With `O=C(C1CCCN1S(=O)(=O)c1ccc(Cl)cc1)N1CCCCC1` (stereo not given) as the molecule, how does the “activity change, negative = growth inhibition” value read?
The value was inactive: -8.68%.

Which Potency does the source give for `CC(C)(O)CN(C(=O)C(c1ccccc1)c1ccccc1)C1CCCCC1` here?
Its Potency is inconclusive [inhibitor, single point].

Which Potency does the source give for `Cc1ccc(C(=O)Sc2cccccc2=O)cc1` here?
The Potency was active: 0.517 µM.

Which Potency does the source give for `Cc1ccc(-n2ncc3c(NCCc4ccccc4)ncnc32)cc1C` here?
The Potency was inconclusive [inhibitor, single point].

With `O=C(NCc1ccccc1CN1CCCC1)c1ccc(S(=O)(=O)Nc2ccccc2F)cc1` as the molecule, how does the Potency read?
The Potency was inconclusive [inhibitor, single point].

With `CN1OC[C@@H]2CN(C(=S)NCCc3ccccc3)[C@H](c3ccc(-n4ccnc4)cc3)C[C@@H]21` as the molecule, how does the “activity change, negative = growth inhibition” value read?
Its value is inactive: -26.2%.

With `CC(=O)Nc1ccnn1C1CCN(C(=O)c2cccc(C)c2C)CC1` as the molecule, how does the “activity change, negative = growth inhibition” value read?
The value was inactive: 3.89%.

Which Potency does the source give for `COc1ccc(S(=O)(=O)N2CCC(C(=O)N3CCCCCC3)CC2)cc1` here?
Its Potency is inconclusive [inhibitor, single point].

With `CCOc1ccccc1CNC(=O)CN1C(=O)CCCc2ccccc21` as the molecule, how does the Potency read?
The Potency was inconclusive [inhibitor, single point].

For `C[C@H]1COc2cccc(N3CCC[C@H]3CO)c2S(=O)(=O)N1`, which “activity change, negative = growth inhibition” value is on record?
The value was inactive: -13.4%.

For `Cc1cccc(OCCCCn2nnc3sc4c(c3c2=O)CCC(C)C4)c1` (stereo not given), which “activity change, negative = growth inhibition” value is on record?
The value was inactive: -24.4%.

Which Potency does the source give for `CCOC(=S)N/C(=N\S(C)(=O)=O)c1ccccc1` here?
The Potency was inconclusive [inhibitor, single point].

With `O=C(Cn1nc(N2CCN(c3ccccc3)CC2)ccc1=O)NCc1cccc(Cl)c1` as the molecule, how does the Potency read?
Its Potency is inconclusive [inhibitor, single point].

For `O=C(c1cc(C(F)(F)F)cc(C(F)(F)F)c1)N1CCC[C@@]2(CCN(c3ccccn3)C2)C1`, which Potency is on record?
Its Potency is inconclusive [inhibitor, single point].

Which Potency does the source give for `Cc1ccc(OCc2nc3ccccc3n2C(C(=O)NC(C)(C)C)c2ccccc2)cc1` (stereo not given) here?
The Potency was inconclusive [inhibitor, single point].

With `COc1ccc(-c2oc(NC(=O)CSc3ncn[nH]3)c(C#N)c2-c2ccc(OC)cc2)cc1` as the molecule, how does the Potency read?
The Potency was inconclusive [inhibitor, single point].

Which Potency does the source give for `Cc1nc2nc(SCC(=O)NCc3ccccc3)nn2c(C)c1Cc1ccccc1Cl` here?
The Potency was inconclusive [inhibitor, full curve].

For `COC1=C(Br)C(=O)c2ncccc2C1=O`, which Potency is on record?
The Potency was active: 0.58 µM.

Which “activity change, negative = growth inhibition” value does the source give for `CN1CC(c2ccc(C#N)cc2)C2(COc3ccccc3C2=O)C12C(=O)Nc1ccccc12` (stereo not given) here?
The value was inactive: -10.5%.

Which Potency does the source give for `Cc1noc(C)c1COc1cccc(C(=O)NCc2ccccc2Cl)c1` here?
The Potency was inconclusive [inhibitor, single point].

Which “activity change, negative = growth inhibition” value does the source give for `O=C(COc1ccccc1)Nc1ccc(C(=O)OCc2cc(=O)n3nc(C4CC4)sc3n2)cc1` here?
Its value is inactive: 1.47%.

For `Cn1c2ccccc2c(=O)c2ccc(C#Cc3ccc(N)cc3)cc21`, which Potency is on record?
The Potency was active: 16.4 µM.

Which Potency does the source give for `Cc1ccc(OCCSc2nc3ccc(NC(=O)COc4ccc(F)cc4)cc3s2)cc1` here?
Its Potency is inconclusive [inhibitor, partial curve].

With `CCC/C=N/NC(=O)c1[nH]c2c([N+](=O)[O-])cccc2c1C` as the molecule, how does the Potency read?
Its Potency is inconclusive [inhibitor, single point].

With `Cc1ccc2c(c1)Sc1c(ccc3ccccc13)N2` as the molecule, how does the Potency read?
Its Potency is inconclusive [inhibitor, single point].

With `COc1ccc(N(CC(=O)NCc2cccs2)S(=O)(=O)c2ccc(F)cc2)cc1` as the molecule, how does the “activity change, negative = growth inhibition” value read?
The value was inactive: 6.97%.

Which Potency does the source give for `CCOc1ccc(NC(=O)OCCN2CCN(CCc3ccccc3)C(C)C2)cc1` (stereo not given) here?
The Potency was inconclusive [inhibitor, single point].

With `COc1ccc(COC(=O)C2=C(C)NC(=O)NC2c2ccc(OC)cc2)cc1` (stereo not given) as the molecule, how does the activity change, negative = growth inhibition read?
The activity change, negative = growth inhibition was inconclusive: -30.3% [inhibitor].

With `O=[N+]([O-])c1ccc(O)c(CNCc2ccccc2)c1` as the molecule, how does the Potency read?
Its Potency is inconclusive [inhibitor, single point].

With `O=C(O)c1ccc(/C=N\Nc2ccccn2)cc1` as the molecule, how does the Potency read?
Its Potency is inconclusive [inhibitor, partial curve, poor fit].

With `CC(C(=O)NCc1cccs1)N1CCN(S(=O)(=O)c2ccc3c(c2)OCCCO3)CC1` (stereo not given) as the molecule, how does the Potency read?
Its Potency is inconclusive [inhibitor, single point].

For `CCCCn1c(N)c(N(CCOC)C(=O)CSc2nnc(-c3ccco3)n2CC)c(=O)[nH]c1=O`, which “activity change, negative = growth inhibition” value is on record?
Its value is inactive: 0.752%.

For `CCOc1ccc(CCNC(=O)CCS(=O)(=O)c2ccc(C)cc2)cc1OCC`, which “activity change, negative = growth inhibition” value is on record?
The value was inactive: -8.28%.

For `CCC(C)NC(=O)c1ccc2nc(-c3ccc(OC)c(OC)c3)c(-c3ccc(OC)c(OC)c3)nc2c1` (stereo not given), which Potency is on record?
The Potency was inconclusive [inhibitor, partial curve].

Which Potency does the source give for `O=C(Nc1nccs1)c1cc([N+](=O)[O-])ccc1Cl` here?
The Potency was inconclusive [inhibitor, single point].

For `CC(C)(C)OC(=O)NNC(=S)NCc1ccc(Cl)cc1`, which activity change, negative = growth inhibition is on record?
The activity change, negative = growth inhibition was inconclusive: -32.7% [inhibitor].

For `COc1ccc(-c2c(C)nn3c(C(F)(F)F)cc(-c4ccc(Br)cc4)nc23)cc1`, which “activity change, negative = growth inhibition” value is on record?
The value was inactive: -1.69%.

For `CCc1cccc(C)c1NC(=O)CN1CCCN(Cc2ccc(C)cc2)S1(=O)=O`, which Potency is on record?
Its Potency is active: 10.3 µM.

For `COC(=O)CN1C(=O)[C@H]2[C@@H](C3CC3)N3C(=O)CN(CCO)C(=O)[C@@]3(Cc3ccccc3)[C@H]2C1=O`, which “activity change, negative = growth inhibition” value is on record?
Its value is inactive: -19.8%.

Which Potency does the source give for `O=C(COc1c(CO)cc(Br)cc1CO)NC1CCCc2ccccc21` (stereo not given) here?
Its Potency is inconclusive [inhibitor, partial curve].

With `O=C(Cc1cccs1)NC1CC(=O)N(c2ccccc2)C1` (stereo not given) as the molecule, how does the “activity change, negative = growth inhibition” value read?
Its value is inactive: -2.18%.

With `Cn1nnnc1SCC1=C(C(=O)O)N2C(=O)C(NC(=O)C(O)c3ccccc3)C2SC1` (stereo not given) as the molecule, how does the “activity change, negative = growth inhibition” value read?
The value was inactive: -4.15%.

Which “activity change, negative = growth inhibition” value does the source give for `CC(C)Cn1c(SCC(=O)Nc2cc(Cl)c(Cl)cc2Cl)nc(O)cc1=O` here?
Its value is inactive: 3.21%.

For `O=C(Cc1cccs1)Nc1cccc(C(=O)Nc2ccc(C(=O)O)cc2)c1`, which “activity change, negative = growth inhibition” value is on record?
The value was inactive: -1.34%.

With `CCOC(=O)[C@]12CCCC=C1N(Cc1ccc(Cl)cc1Cl)C(=O)[C@H](CC(=O)N1CCN(C(=O)c3ccco3)CC1)C2` as the molecule, how does the Potency read?
Its Potency is active: 16.4 µM.

For `Cc1ccc2[nH]c(O)c(N=NC(=O)c3ccc(NS(=O)(=O)c4cccs4)cc3)c2c1`, which Potency is on record?
The Potency was inconclusive [inhibitor, single point].

For `Cc1sc(NC(=O)C2C3CCC(C3)C2C(=O)O)c(C(N)=O)c1-c1ccc(C(C)(C)C)cc1` (stereo not given), which Potency is on record?
Its Potency is active: 11.6 µM.

With `C=CCn1c(SCC(N)=O)nc2sc3c(c2c1=O)CCC3` as the molecule, how does the “activity change, negative = growth inhibition” value read?
Its value is inactive: -9.42%.

With `CCc1nn(CC(=O)NCCCN(Cc2ccccc2)C(C)C)c(=O)c2cc3sccc3n12` as the molecule, how does the Potency read?
Its Potency is inconclusive [inhibitor, single point].

Which Potency does the source give for `O=C(Cc1ccccc1F)Nc1ccc(SC(F)F)cc1` here?
Its Potency is inconclusive [inhibitor, partial curve].

With `O=C(CC[C@H]1O[C@@H](n2ccc(=O)[nH]c2=O)[C@H](O)[C@@H]1O)NCc1cccc2ccccc12` as the molecule, how does the “activity change, negative = growth inhibition” value read?
Its value is inactive: -8.57%.

With `O=C(NCCCn1ncc2ccccc21)c1cc(COc2c(F)cccc2F)on1` as the molecule, how does the Potency read?
The Potency was inconclusive [inhibitor, partial curve, poor fit].

With `CCCCn1nnnc1C(c1cc2ccccc2o1)N(C)Cc1ccc(Cl)c(Cl)c1` (stereo not given) as the molecule, how does the Potency read?
The Potency was inconclusive [inhibitor, single point].
